This passage reports IFI results from ChEMBL document CHEMBL1157539, “Thousands of chemical starting points for antimalarial lead identification” (Nature, 2010).

Structures are written as SMILES. In all, about 13,000 compounds were measured (“IFI”: median about 4, highest 2% from about 17 on). The list shows a part of the results.

The nature of the test: GSK_TCMDC: Inhibition Frequency Index (IFI). The number of non-kinase HTS assays where a compound showed > 50 % inhibition, expressed as a percentage of the number of such assays in which the compound was tested (-0 is zero). It counts as functional.
Molecule `Cc1cccc(C)c1OC(=O)CSc1nnc(-c2ccccc2O)o1` registered an IFI of -0%.

Consider `CN1CCN(CC(=O)Nc2cccc(-c3ccc(-c4nc5cc(C(F)(F)F)ccc5[nH]4)cc3)c2)CC1`, for which the IFI amounted to 6.25%.

Regarding `OCc1ccc(-c2cncc(Nc3cccc(Cl)c3)c2)cc1`, the IFI worked out at 4.62%.

In turn, `c1ccc(CN2CCc3cc4nccc(N5CCNCC5)c4cc32)cc1` showed an IFI of 7.3%.

Molecule `COc1ccc2nccc([C@@H](O)CN3CCC(NC(=O)c4[nH]c5ccccc5c4-c4ccccc4)CC3)c2c1` showed an IFI of 3.65%.

The molecule `CCCCCN1CCCCC(NS(=O)(=O)c2ccc(C(=O)Nc3ccc(C(F)(F)F)cc3)cc2)C1` (stereo not given) displayed an IFI of 3.61%.

The molecule `CSc1cccc(Nc2nc3ccc(S(=O)(=O)NC(C)C(C)C)cc3n2[C@H](C)C(C)(C)C)c1` (stereo not given in full) returned an IFI of 2.19%.

As for `Cc1nc(C)c(CC(=O)Nc2ccc(-c3cccc(-c4nc5cc(C(F)(F)F)ccc5[nH]4)c3)cc2)s1`, the IFI is 10.6%.

Regarding `CCOC(=O)/C(=N\OC(C)(C)C(=O)NCc1ccc(O)c(O)c1)c1csc(NC(c2ccccc2)(c2ccccc2)c2ccccc2)n1`, the IFI stood at 8.03%.

`O=C(/C=C/c1ccc(Cl)c(Cl)c1)NCCCCCN1CCCN(C(=S)Nc2ccc(Cl)cc2)CC1` came in with an IFI of 6.4%.

For `CC(C)(C)N1CCC(N(Cc2ccc(-c3ccc(C(F)(F)F)cc3)cc2)C(=O)Cn2c(CCc3cccc(F)c3F)cc(=O)c3ccccc32)CC1`, the IFI came out at 13.3%.

For the molecule `CN(C)CC(=O)N(Cc1ccc(Cl)c(Cl)c1)Cc1csc(-c2ccc(CNCc3ccccc3)cc2)n1`, the IFI stood at 6.76%.

`COc1ccc(Nc2cc(C)nc(NCc3ccc4c(c3)OCO4)n2)cc1` showed an IFI of 4.58%.

Turning to `Cc1cc(N[C@@H](Cc2ccccc2)C(=O)NCc2cccc(F)c2)nc(NCCc2cccs2)n1`, the IFI stood at 12.8%.

Take `CC(C)(C)c1ccc2[nH]c(-c3ccc(/C=C/C(=O)NCc4ccc(Cl)c(Cl)c4)cc3)nc2c1`: the IFI was 1.47%.

Molecule `CCCN1CCN(Cc2ccc(-c3ccc(-c4nc5ccccc5[nH]4)s3)cc2)CC1` yielded an IFI of 3.31%.

Consider `NC1=NC2(CCCCC2)N(OCCCCCCCCNc2nc(N)nc(N)n2)C(N)=N1`, for which the IFI is 1.44%.

Regarding `COc1ccccc1COc1c(C)nc(N)nc1N`, the IFI worked out at 1.45%.

`N#Cc1cccc(NC(=O)c2cccc(S(=O)(=O)NC3CCN(CC4CCCCC4)C3)c2)c1` (stereo not given) returned an IFI of 4.9%.

`O=C(C=Cc1ccc(Cl)c(Cl)c1)NCCCCCN1CCC(CCCNC(=O)c2ccc3c(c2)OCO3)CC1`: the IFI was found to be 6.77%.

In turn, `O=C(c1cc(-c2cccs2)n[nH]1)N1CCN(S(=O)(=O)c2ccc(Br)cc2)CC1` came in with an IFI of 0%.

For the molecule `CC1(C)NC(N)=NC(=N)N1OCCc1ccc(N)cc1`, the IFI came out at 2.1%.

`Cc1cccn2c(=O)c3cc(C(=O)NCCN4CCOCC4)c(=N)n(CCc4ccccc4)c3nc12` displayed an IFI of -0%.

Take `COc1ccc(Nc2ncc3c(-c4cccc(NC(=O)Cc5cccc(O)c5)c4)c[nH]c3n2)cc1OC`: the IFI amounted to 7.91%.

`O=C(c1ccc(F)c(F)c1)N1CCOC(CCN2CCC(c3ccccc3)CC2)(c2ccc(Cl)c(Cl)c2)C1` (stereo not given): the IFI was 6.76%.

For `Nc1ncc(-c2cccc(OCc3ccccc3)c2)cc1-c1nnc2ccc(Cl)nn12`, the IFI was -0%.

The molecule `CO/C(=C\C=C\c1cc2cc(Cl)c(Cl)cc2[nH]1)C(=O)NC1CCN(CCCc2ccccc2)CC1` yielded an IFI of 9.49%.

In the case of `COc1cccc(-c2c(C#N)c(N)nc3c2c(C)nn3-c2ccccc2)c1O`, the IFI amounted to 2.94%.

In the case of `Cc1cccc2nc(-c3cccc(-c4cccc(NC(=O)Nc5ccc(Cl)cc5)c4)c3)[nH]c12`, the IFI was determined as 5%.

`Nc1ncc(-c2ccccc2)cc1-c1cccc2ncccc12` returned an IFI of 8%.

`COc1ccccc1CNC(=O)c1nn(-c2ccc(Cl)cc2)c(=O)c2ccccc12`: the IFI was 0.69%.

For the molecule `CC(=O)C1=NN(c2ccc(C)cc2)C(c2cccs2)N1c1ccccc1` (stereo not given), the IFI turned out to be 2.65%.

`CCCn1c(O)nnc1SCC(=O)Nc1cc(C(F)(F)F)ccc1Cl` gave an IFI of 1.57%.

For the molecule `CCCNCc1ccc(-c2ccc(CN(CC3CCCO3)C(=O)C3CC(=O)c4ccccc43)cc2)nc1` (stereo not given), the IFI was 1.41%.

For the molecule `Cc1ccc(O)cc1Nc1ccnc2cc(-c3cccc(CNCCS(C)(=O)=O)c3)ccc12`, the IFI stood at 3.6%.

For the molecule `Cc1ccnc2nc(C(=O)Nc3cc(Cl)ccc3N3CCOCC3)nn12`, the IFI worked out at 0.83%.

Molecule `COc1cc2nc(N3CCC(NC(=O)c4cccc(N(C)C)c4)CC3)nc(N)c2cc1OC` returned an IFI of 3.25%.

Molecule `COc1ccc(N2CCN(CCCCNC(=O)c3ccc(NC(=O)c4ccc(Cl)cc4)cc3)CC2)c(OC)c1` came in with an IFI of 5.07%.

In turn, `O=[N+]([O-])c1c(O)nc2c(c1O)CCC2` gave an IFI of 0%.

As to `CN(C)CCNCc1cccc(-c2ccc3c(Nc4ccc(Oc5ccccn5)cc4)ccnc3c2)c1`, the IFI is 8.76%.

Take `CC1(C)CCCC(=Cc2ccc(Br)cc2)C1(O)Cn1ccnc1` (stereo not given): the IFI worked out at 5.88%.

In turn, `CN(Cc1cnc2nc(N)nc(N)c2n1)c1ccc(C(=O)N[C@H](CCC(=O)OC(C)(C)C)C(=O)N[C@@H](CCC(=O)OC(C)(C)C)C(=O)OC(C)(C)C)cc1` registered an IFI of 4.35%.

In turn, `CNC(=O)CSc1nnc(-c2ccc(C)cc2)c(-c2ccc(C)cc2)n1` showed an IFI of -0%.

`NCCCNc1ccc(-c2ccc(NC(=O)Nc3cc(C(F)(F)F)ccc3F)cc2)cn1` showed an IFI of 9.88%.

`COc1cc2ncnc(Nc3ccc(Br)c(Cl)c3)c2cc1OC` gave an IFI of 0.74%.

On to `O=C(NCc1ccc(C(F)(F)F)cc1)c1cccc(-c2nnc(-c3cccc(-c4cncnc4)c3)o2)c1`, for which the IFI stood at 2.16%.

With `CCNc1cc(C(=O)N[C@@H](Cc2ccccc2)[C@H](O)CNC2(C(C)C)CCC2)cc(N2CCCCS2(=O)=O)c1`, the IFI was determined as 0.75%.

Molecule `CC(C)CNCc1cccc(-c2cccc(CN(CCN(C)C)C(=O)Nc3ccccc3)c2)c1` gave an IFI of 5.76%.

In the case of `Nc1c2c(nc3cc(NC(=O)c4ccc([N+](=O)[O-])cc4)ccc13)CCCC2`, the IFI came to 0%.

Molecule `N#Cc1ccc2[nH]c(-c3ccccc3)nc2c1` came in with an IFI of -0%.

Molecule `COc1ccc2nc3cc(Cl)ccc3c(Nc3ccc(Sc4ccc(Nc5c6ccc(Cl)cc6nc6ccc(OC)cc56)cc4)cc3)c2c1` gave an IFI of 2.19%.

In the case of `CC(C)Nc1nc(NCCc2c[nH]cn2)nc(NCc2ccc(Cl)c(Cl)c2)n1`, the IFI was 1.46%.

`Cc1ccc(-c2nnc3c4ccccc4c(C)nn23)cc1S(=O)(=O)N1CCN(CCO)CC1`: the IFI was 1.69%.

In turn, `CC(C)(CN1CCCC1)CN(Cc1ccc(-c2ccc(C(F)(F)F)cc2)cc1)C(=O)Cn1c(CCc2cccc(F)c2F)nc(=O)c2ccccc21` displayed an IFI of 7.04%.

For the molecule `O=C(N[C@@H](CC1CCCCC1)C(=O)NC1CCCc2ccccc21)c1ccc(O)c(-c2ccc(Cl)c(Cl)c2)c1` (stereo not given in full), the IFI is 2.22%.
